Earlier results, collected in US6037348A (priority 1997, dated 2000).

What was measured:
influenza A virus [1] = conditions: plaque reduction assay; cited from earlier work
influenza A virus [2] = conditions: cited from earlier work
[3] = human volunteers infected with wild-type influenza virus

NC12CC3CC(CC(C3)C1)C2 [Amantadine, amantadine, reference compound]
in vitro inhibition of influenza A virus (influenza A virus [1]): potent in vitro inhibitor
duration of fever and other systemic complaints (influenza A virus [2]; administered within forty-eight hours of onset of clinical symptoms): effective in reducing the duration of fever
decrease of virus titer in nasal washes (influenza A virus [2]; [3]): one hundred-fold decrease
fever score (influenza A virus [2]; [3]): dramatic decrease in fever score
